52 compounds from PubChem BioAssay AID1347073 (National Center for Advancing Translational Sciences (NCATS), 2019) can be followed below.

Molecules are shown by their SMILES. Hit rate of the full screen: of about 45,000 compounds, about 200 (0.44%) were called active. Inconclusive results (about 7%) are left out. The call rests on the fitted dose curve; in most records, active means well fitted activation curve with a large enough effect; inconclusive means small, poorly fitted or top-dose-only effect; inactive means no such curve, though single readings can be large or run the other way. Some of the results follow.

The assay is described as follows: qHTS of TDP-43 Inhibitors: NCGC Sytravon Library Screen. Further: 0% is about no effect; nearly all actives have a fitted effect of over 55% in size. As to conditions: yeast TDP-43 toxicity rescue, BacTiter-Glo growth, 24 h; series mostly up to 46.1 µM; growth rescue (activation): at the top concentration. The gist of the method: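 TDP-43-expressing yeast, pregrown in raffinose, seeded at OD600 0.02 in galactose medium with compound for 24 hr at 30 deg C. Growth read by BacTiter-Glo luminescence, so rescue of toxicity appears as activation.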
(In general: In qHTS, concentration-response curves come from the screen itself.)
`c1cncc(-c2noc(-c3ccco3)n2)c1`: the “growth rescue (activation)” value was inactive: -0.073%.
Under `COc1ccc(NC(=S)Nc2cc(C)[nH]n2)cc1Cl` stands inactive: 2.09%.
Under `COc1ccc(CCC(=O)OCC(=O)Nc2ccc(OC)c(OC)c2)cc1OC` stands inactive: -9.24%.
Under `CCCCn1c(SCC(=O)NC2CC2)nnc1-c1ccncc1` stands inactive: 17.2%; under `CCc1nnc(NC(=O)CCN2C(=O)/C(=C/c3cc(OC)c(OC)c(OC)c3)SC2=S)s1`, inactive: 9.85%; under `CC1(C)CC(=O)C=C(NNC(=O)c2ccccc2)C1`, inactive: 1.27%.
Regarding `O=C1C=C(O)c2cccc3cccc1c23`, the “growth rescue (activation)” value is inactive: -20.4%.
Next, `CCOc1cc(S(=O)(=O)n2ccc(C)n2)ccc1Br`: inactive: 6.41%; `CCCC(=O)Nc1cccc(S(=O)(=O)N(C)c2ccccc2)c1`: inactive: 16.9%.
Take `CCCc1cc2c(=O)c(-c3nc4ccccc4s3)c(COCC(=O)O)oc2cc1O`: the “growth rescue (activation)” value was inactive: 8.66%.
As to `CCn1cnc2c1c(=O)n(CC(=O)O)c(=O)n2Cc1ccccc1`, the “growth rescue (activation)” value is inactive: 0.904%.
Regarding `CN(C(=O)c1ccc(Br)o1)C1CCS(=O)(=O)C1` (configuration not stated), the “growth rescue (activation)” value is inactive: -11.2%.
Under `COc1ccc(NC(=O)c2cc(S(=O)(=O)N3CCCCC3)ccc2C)cc1S(=O)(=O)N1CCOCC1` stands inactive: 3.57%.
Turning to `CCOC(=O)n1cc(C(=O)c2ccccc2O)cn1`, the “growth rescue (activation)” value was inactive: -9.58%.
For `COC(=O)c1ccc(/C=C/C(=O)OCC(=O)Nc2sccc2C(N)=O)cc1`, the “growth rescue (activation)” value was inactive: 8.6%.
For the compound `CC(Sc1nnc(C2CC2)n1C)C(=O)Nc1ccc(N2CCOCC2)cc1` (configuration not stated), the “growth rescue (activation)” value was inactive: -10.6%.
For `CCC(C(=O)NCCc1c[nH]c2ccc(C)cc12)c1ccccc1` (configuration not stated), the “growth rescue (activation)” value is inactive: -0.825%.
As to `Cc1cc(N)n(-c2cc(C)c3ccccc3n2)n1`, the “growth rescue (activation)” value was inactive: 23.8%.
Under `Cc1nc(Cl)nc(N(C)c2ccccc2)c1[N+](=O)[O-]` stands inactive: 5.46%.
Regarding `COC(=O)N1CCCCC1c1cc(C(=O)Nc2ccc3c(c2)OCO3)no1` (configuration not stated), the “growth rescue (activation)” value is inactive: 20.2%.
Take `CCCC(c1nnnn1C(C)(C)C)N1CCN(C(=O)c2ccco2)CC1` (configuration not stated): the “growth rescue (activation)” value is inactive: 5.67%.
Under `CCCOC(=O)C1[C@H]2C(=O)N(CC3CCCO3)C[C@]23C=C[C@H]1O3` (some centres not stated) stands inactive: -2.08%; under `CC(=O)N(Cc1cc(=O)[nH]c2ccccc12)c1ccc(C)cc1C`, inactive: -9.26%; under `Cc1cc(NC(=O)CSc2ccc(-c3ccc(F)cc3)nn2)no1`, inactive: 17.2%.
Next, `COC(=O)c1ccc2c(=O)n(Cc3ccc(C(=O)NCCCN4CCC(C)CC4)cc3)c(=S)[nH]c2c1`: inactive: 6.06%; `O=C1NC(=Nc2cccc(O)c2)S/C1=C\c1cccnc1`: inactive: -0.359%.
Next, `Cc1ccc(NC(=S)Nc2cc(C(=O)O)ccc2N2CC3CC(C2)c2cccc(=O)n2C3)cc1C` (configuration not stated): inactive: 7.06%; `COc1ccc(Cl)cc1S(=O)(=O)NC(C)C(=O)NCc1ccccn1` (configuration not stated): inactive: -0.147%; `CCC(CC)NC(=O)c1ccc(Cl)cc1`: inactive: 8.36%.
`c1ccc(C2=Nc3cccc4cccc(c34)N2)cc1`: the “growth rescue (activation)” value is inactive: -15.3%.
As for `COc1cccc(Oc2ccc(C(F)(F)F)cc2N)c1`, the “growth rescue (activation)” value was inactive: -12.6%.
Under `CCc1noc(C)c1C(=O)N1CCCC(N2CCN(c3cccc(Cl)c3)CC2)C1` (configuration not stated) stands inactive: -3.61%; under `CCCNC(=O)C1(C)CCCN(C(=O)COc2ccc(Cl)cc2Cl)C1` (configuration not stated), inactive: -0.876%.
Under `Cc1ccc(NS(=O)(=O)c2cc(C(=O)Nc3cccnc3)ccc2C)cc1` stands inactive: 13.6%.
Under `COc1ccccc1NC(=O)COC(=O)/C=C/c1ccc2c(c1)OCO2` stands inactive: -4.88%; under `CCOC(=O)c1sc(N(C)C(C)=O)nc1C`, inactive: 44%; under `COc1ccc(-c2nnc3n2CCCCC3)cc1OC`, inactive: -14.1%.
Turning to `O=C(COC(=O)Cn1cnc2ccccc21)Nc1ccc(F)c(F)c1`, the “growth rescue (activation)” value is inactive: 10.6%.
As to `Cc1ccc(NC(=O)c2ccc3c(c2)OCCO3)cc1C`, the “growth rescue (activation)” value was inactive: -22.9%.
Under `O=C(COC(=O)c1ccccc1C(=O)c1ccccc1)Nc1ccc(SC(F)F)cc1` stands inactive: 5.27%.
In the case of `OCCC1CN(Cc2ccc3ncccc3c2)CCN1Cc1ccccc1` (configuration not stated), the “growth rescue (activation)” value is inactive: -2.29%.
Under `CC1(C(=O)Nc2cnc3ccccc3c2)CCN1C(=O)C/C=C/c1ccccc1` (configuration not stated) stands inactive: 23.5%; under `CCCN(CCC)CCCNC(=O)Cn1cnc2sc(C)c(S(=O)(=O)N3CCCCC3)c2c1=O`, inactive: -19.7%; under `O=C(/C=C/c1ccc(Cl)cc1Cl)Nc1cccc(S(=O)(=O)NC2=NCCC2)c1`, inactive: -2.48%.
In the case of `O=[N+]([O-])c1ccc(P(=O)(Cc2ccccc2)c2ccccc2O)cc1` (configuration not stated), the “growth rescue (activation)” value is inactive: 1.4%.
Next, `O=c1oc2ccccc2c2oc3cc(O)c(O)cc3c12`: inactive: -9.35%; `Cc1cc(C)c(/C([O-])=C(/C(=S)Nc2ccc(SC(F)F)cc2)[n+]2ccccc2)cc1C`: inactive: 6.08%; `O=C(N/N=C/c1c[nH]c2ccccc12)c1cccc([N+](=O)[O-])c1`: inactive: 14.3%.
Under `O=C(O)c1ccc(Sc2nnc3ccccn23)c([N+](=O)[O-])c1` stands inactive: 6.38%; under `Cc1cc(OC(C)C(=O)Nc2ccccc2C(=O)N2CCCC2)ccc1Cl` (configuration not stated), inactive: 19.3%; under `CCCCNC(=O)CCCCn1c(=S)[nH]c2c([nH]c3ccc(OC)cc32)c1=O`, inactive: -3.52%.
Under `COc1ccc(C2=NC3(CCCCC3)N(CC(=O)Nc3ccc(C(C)C)cc3)C2=O)cc1` stands inactive: 11.5%.
